According to the supplement of paper PMC10126150:
Values marked as one replicate rest on one cluster of the flow cell; about a third of the high ones do not repeat.

Test system: ATP
Assay: switch fluorescence ratio, 500 uM ATP over buffer (Cy3 cluster intensity, sum of 5 cycles each) (fold (ratio)); higher = stronger signal-on switching upon ATP binding; sequences stand for … in TCGTCGGCAGCGTCAGATGTGTATAAGAGACAGTTTTTTTTTTTTTTTTTTTTTTTTT…TC
Settings: aptamer strand: ATP DNA aptamer (quencher-CACCTGGGGGAGTATTGCGGAGGAAGG + anchor), 100 nM annealed; ATP concentration: 500 uM; one replicate
Method in brief: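 Values give the fluorescence ratio for each switch-domain sequence, averaged from per-cluster ratios of summed target-cycle to summed buffer-cycle Cy3 intensity. The Cy3-labelled switching-strand clusters sat on a modified Illumina MiSeq flow-cell, were annealed to 100 nM quencher-labelled ATP aptamer, and were imaged in selection buffer, then after 15 min with 500 uM ATP at 22 °C. Five cycles ran with NaOH stripping and re-annealing between them, and clusters outside 100-1000 RFU were excluded.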
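Note: ATP exposure 15 min at 22 °C before imaging.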

| Sequence | switch fluorescence ratio |
| --- | --- |
| CCCCCATGGA | 1.91 |
| CAGCGACAGG | 1.04 |
| ATGGTGGGTT | 0.982 |
| CAGGTCCATA | 0.977 |
| ACAAGGTAAC | 0.99 |
| TAAATCCACA | 1.05 |
| TCAGTCAGTG | 1.05 |
| CTAGTGGGTG | 1.02 |
| AATGCCTGAG | 1.12 |
| CTGACGGGGT | 1.09 |
| CGTGATGCTT | 1.03 |
| ACAATACATA | 1.2 |
| CCGAGTCCAA | 3.78 |
| GCATCTATTC | 1.01 |
| TCAAGTGGGT | 0.952 |
| TGACTGGACC | 1.29 |
| CCCACGCTT | 4.04 |
| TTGGTACTC | 1.11 |
| TAAGTTACGG | 1.4 |
| ACCTATATCA | 1.07 |
| TTTGGTCAA | 0.994 |
| TGATCCAATC | 1 |
| AATTCGATCC | 1.06 |
| AGGATTGCCC | 0.988 |
| ATAAGAAGGG | 0.968 |
| ATGCATAGCG | 1 |

| Sequence | switch fluorescence ratio |
| --- | --- |
| TCGTTTCAG | 1.01 |
| TACGGGTTGG | 0.979 |
| ATTGATCTTA | 1 |
| GGCGAAGTTA | 0.98 |
| TTACGTACCC | 1.43 |
| AATGGGTCAA | 1.11 |
| TGTCTTCCCG | 1.19 |
| GAAGATACTA | 1.02 |
| TAAATTACG | 1.09 |
| TATTCAAATT | 1.06 |
| CAGAACACAT | 1.12 |
| TGACTCTAGC | 1.06 |
| AGTACCTAGT | 1.01 |
| GCGGTTCAAG | 0.982 |
| AAAGGACGTT | 1.02 |
| TTAATCCGCC | 1.99 |
| ATTTCCCTGC | 1.05 |
| GGTCGTCTAG | 0.975 |
| AATGTAGCGG | 0.978 |
| CAGTCAAGCA | 1.04 |
| GTCGAAATGA | 0.983 |
| ATTCCTAATC | 1.02 |
| GGTGCGCCC | 0.986 |
| AAGCAGCACG | 0.996 |
| TATGGTTGTT | 0.968 |
| CATAACCACT | 1.02 |

| Sequence | switch fluorescence ratio |
| --- | --- |
| AAAGGATACC | 1.13 |
| GGGAGCGAGG | 1.01 |
| AATGACTTAG | 1.02 |
| GAGCTATCCT | 1.09 |
| ACTATGTTGG | 0.931 |
| GGATTCTT | 1.01 |
| CGGCTCCTCG | 1 |
| TTGGTGATTT | 0.934 |
| AAGGCCATCG | 1.02 |
| TTCCAATAGA | 0.997 |
| TATGTGCAGC | 0.99 |
| CGGTCGTTAT | 1.02 |
| TTGGTATCAC | 1.01 |
| TCGGCTGTGA | 0.975 |
| CATCAACGTA | 0.931 |
| CTTTCCGACT | 1.24 |
| ATGCTGTGGG | 1.05 |
| CAAGTCTTT | 0.978 |
| AGGGATCGGA | 0.99 |
| TGGTGGACTT | 0.995 |
| TGTTATCGTA | 1.03 |
| GCATCGGAGA | 1.03 |
| GGGGCAAAAG | 0.991 |
| ATCCGATTCG | 0.973 |
| CCATTTTTGA | 0.999 |
| ACTTTGGGAA | 1.02 |

| Sequence | switch fluorescence ratio |
| --- | --- |
| TGCCAAAAGA | 0.97 |
| GCCAGTG | 1.06 |
| TGTGCATGGC | 0.998 |
| TAAGAGATGA | 1.01 |
| ACAAACTAAC | 1.15 |
| AGGGACATCT | 1.13 |
| CATGCTGAC | 0.975 |
| ACACAACATA | 1.12 |
| GGTTGTTTCC | 1.05 |
| ATATTTGTAC | 1.01 |
| TGAGAATTGC | 1.02 |
| AGAAATCAAC | 1.01 |
| AGGGCCCTAA | 0.985 |
| AAGTGAACTC | 0.994 |
| TACATGTGAA | 1.03 |
| AATGGAATGA | 0.957 |
| CTTATTAATT | 1 |
| GCCGATAGAA | 0.942 |
| CACTCAGCC | 1.1 |
| GAACGGACCG | 0.993 |
| GCCATGGGTT | 1.01 |
| GGTTGCGGAG | 0.947 |
| TTTGTGACTC | 1.02 |
| ATATAAGATA | 1.05 |
| TAGCATTCGA | 1.1 |
| GGGCAAGTAA | 1.03 |

| Sequence | switch fluorescence ratio |
| --- | --- |
| GAACAGTTGG | 0.984 |
| CGATAGTAGT | 0.942 |
| TTTAGTACA | 1.01 |
| GTATTTCACC | 1.06 |
| ACCGGGTATA | 0.999 |
| AAACTTGTTG | 1.03 |
| CCCATAGAAA | 1.01 |
| CTGTGTGTTG | 0.994 |
| GGTGGGCCGA | 0.997 |
| TATGGTTGTA | 1 |
| TTCTGTACGC | 1.4 |
| CAGATAGTAC | 1.06 |
| TATCTTGGTC | 0.859 |
| CATAGTTACA | 1.01 |
| TGCTGGCTTC | 0.926 |
| AAGAGGTCTG | 0.99 |
| CCTAATTGGC | 0.957 |
| AACAAATCCC | 0.96 |
| TTGTGCTG | 1.03 |
| GCATCTAGG | 1.12 |
| GCGCCAGCCT | 0.998 |
| TAACTTGAGG | 0.979 |
| GGAAACAGTA | 1.16 |
| TACGAACTT | 1.41 |
| ATAGAGTCCT | 0.958 |
| TCCGTAGGTT | 1.04 |

| Sequence | switch fluorescence ratio |
| --- | --- |
| CAAGGCTAAA | 1 |
| CGGTTACGAA | 1.02 |
| GCGGGGATCG | 0.968 |
| CAGCAAATCT | 1.48 |
| TGAAGTAAAG | 0.999 |
| TGACGCAACT | 5.26 |
| GATGAGTTGG | 0.97 |
| CGCATTATGT | 1.44 |
| CCCTTAGTTA | 1.01 |
| GAATGAAATT | 0.972 |
| ATATCGCGGT | 0.988 |
| TAGTATGTGC | 0.924 |
| ATCGGATCGC | 1.05 |
| TCTATCCGCT | 1.58 |
| ACCATAGCCC | 1.18 |
| GTCGATTTCG | 1.02 |
| GACCTTTGGC | 1.04 |
| GCCTGGGCCA | 0.984 |
| TTTCATGTGT | 1.02 |
| AGTATCTACA | 1.03 |
| TAGAGAGAGC | 1.07 |
| AGTTTCGACG | 1.06 |
| AAGGACACTA | 1.05 |
| TGACTATGAG | 0.98 |
| CTATACGGAA | 1.22 |
| CGCAATTGGG | 2.4 |

| Sequence | switch fluorescence ratio |
| --- | --- |
| GAAAAATTTA | 1.01 |
| CAGCGCGATG | 1.02 |
| GGCGACGTGC | 0.983 |
| ATCATGTGAA | 0.981 |
| TGACGCCGGT | 1.05 |
| CCTTCGGCGT | 1 |
| GTCGTCTTAG | 1.03 |
| TCCAGTTGGA | 1.02 |
| TAAACAACTC | 1 |
| AAGAACCGGC | 1.13 |
| GGTGGGTCAA | 1.05 |
| GGCACAAATC | 0.97 |
| GGGGTCACTG | 0.96 |
| AGGAAATGCG | 0.981 |
| ATGTTGCTAC | 1.07 |
| GGATCTCGAC | 1.05 |
| CGCAGGGTCG | 1 |
| TAGAGAAGGT | 1.01 |
| TCCGAGAATA | 1.66 |
| AGGCGCGAGG | 1.02 |
| ATAAAGCTGG | 1.04 |
| CAGGTACGTA | 1.01 |
| GAAGTATGC | 1.05 |
| GGCTTAGGCG | 0.978 |
| TGTGCTCAGG | 1.09 |
| CTGCAAAGTC | 2.27 |

| Sequence | switch fluorescence ratio |
| --- | --- |
| TCGGAAGGTA | 1.02 |
| GGCGAGCCGC | 0.989 |
| CTTGAGAGGA | 1.05 |
| TATGCGGTAG | 1.04 |
| GCGGAATGAG | 1.03 |
| GAGCCTCTGA | 1.02 |
| ATCGATATGG | 1.01 |
| TGGACCCCAG | 1.04 |
| CGCCGTGTGC | 1.11 |
| TAGAAGATAC | 1.86 |
| CGAGCTGGTA | 1.03 |
| GGCGTTCGAG | 0.996 |
| CTTGAATCA | 0.988 |
| AGAGGGGCGA | 0.964 |
| TTAAGCGTGT | 0.965 |
| GATTGTCTT | 1.01 |
| ATCCCTCTTT | 1.03 |
| CAAATTCACG | 1.01 |
| ATGGTATTGA | 1.02 |
